Laboratory results reported in PubChem BioAssay AID485344 (National Center for Advancing Translational Sciences (NCATS), 2010).
About 6,900 (2%) of roughly 340,000 compounds were called active. Cut-off read from the data, not from the text of the source: active = inhibition above about 30%; inactive = below that, where a call was filed. Only a part is listed here, and it is no random draw. Entries without a call were filed so in the source.
Note: 0% is about no effect.

The compounds below were run against D(2) dopamine receptor (Homo sapiens) (UniProt P14416) (assay: HTS Assay for Allosteric Antagonists of the Human D2 Dopamine Receptor: Primary Screen for Antagonists). Details: HEK293 TREx D2 cells, calcium flux, dopamine EC80; at 10 µM; stronger effect = higher value.
Sequence of UniProt P14416 (P14416 whole entry, looked up): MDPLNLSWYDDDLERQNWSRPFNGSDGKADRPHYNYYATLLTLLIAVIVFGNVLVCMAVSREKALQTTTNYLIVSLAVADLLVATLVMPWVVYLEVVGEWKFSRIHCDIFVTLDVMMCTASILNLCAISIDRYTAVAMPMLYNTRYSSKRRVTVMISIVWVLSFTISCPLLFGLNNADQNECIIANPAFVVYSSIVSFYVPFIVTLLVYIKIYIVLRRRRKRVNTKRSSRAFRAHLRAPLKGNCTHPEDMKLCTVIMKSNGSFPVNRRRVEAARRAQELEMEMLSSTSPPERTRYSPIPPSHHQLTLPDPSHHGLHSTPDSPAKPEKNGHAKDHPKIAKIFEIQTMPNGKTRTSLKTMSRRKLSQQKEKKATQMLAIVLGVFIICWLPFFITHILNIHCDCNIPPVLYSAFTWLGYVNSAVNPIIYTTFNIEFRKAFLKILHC
Method in brief: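 Inhibition of EC80 dopamine-driven calcium flux, recorded kinetically, defines activity here; cells are a tetracycline-induced HEK293 T-REx line expressing force-coupled D2.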
In the case of CCc1ccccc1N(C)C(=O)c1cnc(N2CCOCC2)c2ccccc12, the inhibition is reported as -9.63%. Work on Cc1ccc(Cc2nc3ccccc3nc2SCC(=O)NCc2ccc(F)cc2)cc1 yielded an inhibition of -2.94%. Compound Cc1cc(Br)ccc1NC(=O)c1cn(C2CCCC2)c(=O)c2c1c1ccccc1n2C has an inhibition of 5.86%. Work on Cc1cccc(C(=O)N2CCc3cc(CNC(=O)Cc4ccc(F)cc4)ccc32)c1 yielded an inhibition of -14.1%. COc1ccc(CCNc2ncnc3c2c(-c2ccccc2)cn3-c2ccc(F)cc2)cc1OC was tested, and the inhibition was -0.437%. COc1ccccc1N1CCN(Cc2cc3c(cc2[N+](=O)[O-])OCO3)CC1 was tested, and the inhibition was active: 51.6%. With CCC(=O)C1=C(c2cccc([N+](=O)[O-])c2)N(C(=O)CC)n2c(nnc2-c2ccccc2)S1 the inhibition was 22.4%. CCCCNc1nc(Oc2ccc(OCC(N)=O)nn2)nc(N2CCOCC2)n1 gave an inhibition of 3.32%. For CCOc1cc(C2c3c(oc4ccc(F)cc4c3=O)C(=O)N2Cc2ccco2)ccc1O (stereo not given), the inhibition was 4.45%. Compound Cc1ccc(-n2c(SCC(=O)Nc3ccc4c(c3)OCO4)nc3c([nH]c4ccccc43)c2=O)cc1 has an inhibition of -6.11%. For CCN(C(=O)Cn1cc(S(=O)(=O)Cc2ccccc2Cl)c2ccccc21)c1ccccc1, the inhibition was -0.607%. Cc1ccc(C)c(N2CCN(C(=O)Cn3c(-c4cccs4)cc4ccccc43)CC2)c1 gave an inhibition of 11.3%. Work on Cc1n[nH]c(C)c1S(=O)(=O)N1CCCC(C(=O)Nc2ccc(Cl)cc2)C1 (stereo not given) yielded an inhibition of -2.04%. For Cc1ccc(N2CCN(C(=O)c3c4c(nc5ccccc35)C(=O)N(C3CCCCC3)C4)CC2)c(C)c1, the inhibition was 4%. With CCOC(=O)c1ccc(NC(=O)C(CC)Sc2nc3ncccc3o2)cc1 (stereo not given) the inhibition was -1.89%. Compound COc1ccc(C(=O)Nc2nc3c(s2)CCc2cc(OC)ccc2-3)cc1 has an inhibition of 1.73%. COCCCn1c(SCC(=O)NCc2ccccc2)nc2c(sc3ccccc32)c1=O gave an inhibition of 0.774%. Compound CN(C)c1ccc(CNC(=O)C2CCN(S(=O)(=O)c3ccc4c(ccn4C)c3)CC2)cc1 has an inhibition of 3.3%. With Cc1ccc(C)c(Nc2nn3c(=O)c4ccc(C(=O)NCCc5ccccc5)cc4nc3s2)c1 the inhibition was -12.2%. For CSc1ncc(C(=O)NCc2ccccc2)c(-c2ccccc2)n1, the inhibition was -1.52%. Work on CC(C)(C)n1cnc2cc(NCc3ccccc3Cl)ccc21 yielded an inhibition of 7.86%. COc1ccc(NC(=O)C2CCCN2S(=O)(=O)c2cccc3cccnc23)cc1OC (stereo not given) showed an inhibition of 9.88%. CC(C)Oc1ccc(CNC(=O)c2ccc(NC(=O)N3CCSc4ncccc43)cc2)cc1 gave an inhibition of 8.03%. CCC(C(=O)NCc1ccccc1OC)n1nc(C)n2c(cc3sccc32)c1=O (stereo not given) was tested, and the inhibition was -4.07%. Compound CCOC(=O)c1c(S(=O)(=O)NCC(=O)Nc2ccc(C)c(Cl)c2)c(C)n(C)c1C has an inhibition of 14.2%. For COc1ccc(-c2nc3sc(CCNC(=O)c4cccc(C(F)(F)F)c4)c(C)n3n2)cc1, the inhibition was 6.15%. CCOc1ccc(C2c3[nH]c4ccccc4c3CCN2C(=O)Cc2cccc(OCC)c2OCC)cc1 (stereo not given) showed an inhibition of -21.6%. In the case of OC(C#CCCN1CCCCC1)(c1ccccc1)c1ccccc1, the inhibition is reported as active: 33.4%. CCOC(=O)c1cnc2ccc(C(=O)OC)cc2c1Nc1ccccc1CC gave an inhibition of 6.88%. For Cc1ccccc1Cn1nnc2c(=O)[nH]c(C3CCN(C(=O)c4ccccc4)CC3)nc21, the inhibition was 6.31%. In the case of COC(=O)c1ccccc1NC(=O)CSc1nc(-c2ccccc2)cc(C(F)(F)F)n1, the inhibition is reported as 4.53%. CC(=O)c1ccc(NC(=O)c2ccc3c(c2)N(Cc2cccc(Cl)c2)C(=O)c2ccccc2S3(=O)=O)cc1 was tested, and the inhibition was -1.35%. With O=C(NCc1ccccc1)c1ccc2c(c1)C(=O)N(CC1CCCO1)C2=O (stereo not given) the inhibition was active: 31%. CCOC(=O)c1c(C)[nH]c(C)c1S(=O)(=O)N1CCC(C(=O)Nc2ccc(F)cc2F)CC1 was tested, and the inhibition was 1.92%. With Cn1c(=O)oc2cc(S(=O)(=O)N3CCOCC3)ccc21 the inhibition was active: 45.9%. CCOCCc1nn2c(=O)cc(COC(=O)COc3ccccc3Cl)nc2s1 showed an inhibition of 7.69%. In the case of Cc1cc(Cl)ccc1NC(=O)CN1C(=O)CSc2ccc(S(=O)(=O)N(C)C)cc21, the inhibition is reported as 2.56%. With COc1ccccc1CNC(=O)CCc1c(C)nc2cc(-c3ccccc3OC)nn2c1C the inhibition was -7.95%. COc1ccc(CNC(=O)Cn2ccc3cc(S(=O)(=O)N4CCCCC4)ccc32)c(OC)c1 showed an inhibition of -3.44%. With Cc1ccc(NC(=O)CN2CCCN(Cc3ccccc3Cl)S2(=O)=O)c(C)c1 the inhibition was -2.27%. With CC1CCN(C(=O)CN2C(=O)C(=O)N(C)C2=O)c2ccccc2S1 (stereo not given) the inhibition was active: 44.3%. In the case of CCOC(=O)c1cnc2cc(C(F)(F)F)ccc2c1N1CCN(c2ccc(F)cc2)CC1, the inhibition is reported as 14.1%. COc1ccccc1CNC(=O)C1CCCN(c2nn3cc(-c4ccc(F)cc4)nc3s2)C1 (stereo not given) gave an inhibition of -19.4%. Compound Cc1ccc(Cn2ccn(CC(=O)Nc3ccccc3C(F)(F)F)c(=O)c2=O)cc1 has an inhibition of -27.8%. CCOc1ccc(CCNC(=O)CS(=O)Cc2nc(-c3ccc(C)cc3)oc2C)cc1OCC (stereo not given) gave an inhibition of 16.1%. Work on COc1cccc(/C=C/c2nc(C#N)c(N3CCCCC3)o2)c1 yielded an inhibition of 2.09%. For O=C(c1cnc2cc(-c3ccccc3)nn2c1)c1cc([N+](=O)[O-])ccc1O, the inhibition was 16.1%. Compound CCCn1c(=N)c(C(=O)NCc2cccnc2)cc2c(=O)n3cc(C)ccc3nc21 has an inhibition of 3.14%. In the case of CCc1ccc(CSc2nc(-c3ccccc3OC)nc3c2Cc2c(CO)cnc(C)c2O3)cc1, the inhibition is reported as -11.9%. Compound CSc1ccc(CCNC(=O)CCc2c(C)nc3c(-c4ccccc4)c(C)nn3c2C)cc1 has an inhibition of 8.09%. Work on Cc1ccccc1Cn1nc(C)c(NC(=O)c2cc(-c3ccc(F)cc3)on2)c1C yielded an inhibition of 13.5%. With COC(=O)c1ccc2c(=O)n(CCCCCC(=O)NCc3ccccc3)c(=O)[nH]c2c1 the inhibition was -10.7%. For O=C(c1ccco1)N1CCN(CC(O)COc2ccc(Br)cc2)CC1 (stereo not given), the inhibition was active: 77.2%. CCc1ccc(NC(=O)c2cc(-c3cccs3)on2)cc1 showed an inhibition of -19.7%. In the case of CCOC(=O)c1c(NC(=O)/C=C/c2ccc(OC)c(OC)c2)sc(C(C)=O)c1C, the inhibition is reported as 2.55%. O=C(CN1CCSc2ccccc21)N1CCN(c2ccccc2)CC1 was tested, and the inhibition was 10.1%. CC(=O)c1ccc(NS(=O)(=O)c2cc3[nH]c(=O)c(=O)[nH]c3cc2C)cc1 gave an inhibition of 22%. Cc1ccc(C)c(N2CCN(C(=O)Cn3ncc4c(=O)oc5ccc(C)cc5c43)CC2)c1 was tested, and the inhibition was -0.872%. COc1ccc(S(=O)(=O)NCCc2nnc3ccc(SCC(=O)Nc4ccc(C(F)(F)F)cc4)nn23)cc1 was tested, and the inhibition was 2.24%. With Cc1ccc(CNC(=O)CN(c2ccc(C(C)C)cc2)S(=O)(=O)c2c(C)n[nH]c2C)cc1 the inhibition was -5.63%. CC(C)(C)CC(=O)Nc1nnc2n1CCS2 gave an inhibition of 8.41%. With COc1ccc(Cn2ccnc2SCC(=O)Nc2ccc(C)cc2C)cc1 the inhibition was 10.6%. COc1cccc(NC(=O)CN2CCCN(S(=O)(=O)c3ccc(Br)cc3)CC2)c1 showed an inhibition of 0.498%. O=C(COc1ccc(Cl)cc1)Nc1ccccc1C(=O)OCc1cc(=O)n2ccsc2n1 showed an inhibition of 0.383%. CCCC(=O)NCC(c1ccc2c(c1)OCO2)N1CCOCC1 (stereo not given) was tested, and the inhibition was 16.9%. In the case of COc1ccccc1CNC(=O)CN1C(=O)CSc2c1c(C)nn2-c1ccccc1, the inhibition is reported as 11.6%. Compound O=C(NCCSCc1c(F)cccc1Cl)C1CCN(S(=O)(=O)Cc2ccccc2)CC1 has an inhibition of -10.4%. In the case of c1ccc(-c2ccc(CN3CCN(c4ncccn4)CC3)cc2)cc1, the inhibition is reported as active: 118%. For Cc1cc(C)c2c(=O)c3c(oc2c1)C(=O)N(Cc1ccc(F)cc1)C3c1cccc(O)c1 (stereo not given), the inhibition was -25.7%. For CC(C)(C)NC(=O)NC(=O)COC(=O)CCCc1c[nH]c2ccccc12, the inhibition was active: 70%. In the case of CC1CCN(CCOc2ccc(OCc3ccccc3)cc2)CC1, the inhibition is reported as active: 30.9%. Cc1ccc(-c2cc(NC(=O)C(C)Oc3ccc(C)c(C)c3)on2)cc1 (stereo not given) showed an inhibition of 1.45%. Compound CC(=O)c1cccc(NC(=O)CCCN2C(=O)COc3ccc(C)cc32)c1 has an inhibition of -9.78%. CCOc1ccc(C(=O)Nc2nnc(S(=O)(=O)N(CC)c3ccccc3C)s2)cc1 showed an inhibition of -3.87%. For O=C(NCCc1ccccc1)c1ccc2c(c1)CCN2S(=O)(=O)c1ccc(Br)cc1, the inhibition was 4.9%. Compound O=C(CCS(=O)(=O)c1cccs1)Nc1ccc(C(=O)Nc2cccc(Cl)c2)cc1 has an inhibition of -6.76%. COc1cc(OC)cc(C(=O)N2CCC(c3ccncc3)CC2)c1 gave an inhibition of 6.74%. COc1ccc(N2CC(c3nc(-c4cc(OC)c(OC)c(OC)c4)no3)CC2=O)cc1Cl (stereo not given) was tested, and the inhibition was -5.49%. Work on CCNc1nc2c(c(=O)[nH]c(=O)n2C)n1CC(O)COc1ccc(Cl)cc1Cl (stereo not given) yielded an inhibition of -8.17%. Compound COc1ccc(CNc2ccc3cc(S(=O)(=O)N4CCCCC4)ccc3n2)cc1 has an inhibition of -5.18%. With Cc1ccc(C)c(NC(=O)CN2C(=O)CSc3nc(C)cc(C)c32)c1 the inhibition was -12.5%. For O=C(Cc1ccccc1)Nc1c(C(=O)N2CCN(c3ccc(F)cc3)CC2)oc2ccccc12, the inhibition was -12.4%. With O=C(Nc1ccc(SC(F)F)cc1)c1cc(-c2cccs2)on1 the inhibition was 1.99%. Compound CC1CCN(C(=O)CN2CCSc3ccccc32)CC1 has an inhibition of -2.56%. Work on CC(NC(=O)c1nn(C)c2c1CSc1ccccc1-2)c1ccccc1 (stereo not given) yielded an inhibition of 12.3%. For COc1ccc(OC)c(NC(=O)CSc2nc(-c3ccccc3C)nc3cc(=O)[nH]n23)c1, the inhibition was 3.19%. COC(=O)c1sc2cccc(F)c2c1S(=O)(=O)N1CCN(c2ccccc2OC)CC1 was tested, and the inhibition was 8.67%. Compound CC(C)(C)c1ccc(Oc2nc3ccccn3c(=O)c2/C=C(\C#N)c2nc3ccccc3[nH]2)cc1 has an inhibition of -2.9%. COc1ccc(CNC(=O)c2ccc3c(c2)N(C)C(=O)C2CCCCN32)cc1OC (stereo not given) was tested, and the inhibition was 13.7%. In the case of CCN(CC)CCN1C(=O)C(=O)/C(=C(/O)c2ccc(Cl)cc2)C1c1ccncc1 (stereo not given), the inhibition is reported as active: 40.2%. Compound O=C(CCC(=O)N1CC2CCCN2c2ccccc21)NCc1ccccc1 (stereo not given) has an inhibition of -22.5%. In the case of Cc1cc(NC(=O)CN2C(=O)N(C)C3(CCCCC3)C2=O)ccc1Br, the inhibition is reported as active: 33.4%. In the case of CCOC(=O)c1ccc(NC(=O)C2=C(C)Nc3nc(SCc4ccc(Cl)cc4)nn3C2c2ccc(C)cc2)cc1 (stereo not given), the inhibition is reported as 6.16%. Compound Cc1nn(C(=O)COc2ccccc2)c(C)c1Sc1ccccc1 has an inhibition of -0.437%. With CCOc1ccc(CC(=O)NCCc2csc(-c3ccc(C(F)(F)F)cc3)n2)cc1 the inhibition was 1.95%.
